Reference: the supplement of paper PMC4967469
A lower IC50 marks a more sensitive line; fits outside the tested doses are given as limits. AUC, from the same fit, is the share of area under the viability curve across the 256-fold dose range; values near 1 show little effect. For some assays here: An inferred top dose is not printed in the source and was worked back from the curve model.

What was measured:
Experiment in all cases: Viability of human cancer cell lines after 72 h of drug (GDSC screen)
Dabrafenib = compound: CC(C)(C)c1nc(-c2cccc(NS(=O)(=O)c3c(F)cccc3F)c2F)c(-c2ccnc(N)n2)s1 [Dabrafenib]; conditions: top dose 10 µM
Experimental: (§1)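 Human cancer cell lines in 384-well plates, medium with 10% serum, drug for 72 h over a 256-fold dose range (nine 2-fold or five 4-fold steps up to the top dose). Adherent lines were fixed and stained with the nucleic acid dye Syto60, suspension lines read with resazurin; signal relative to control wells, capped at 0 and 100%. One two-parameter sigmoid per drug and line, fitted in a mixed model over all curves with the slope shared within a line.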

SN-38 = compound: CCc1c2c(nc3ccc(O)cc13)-c1cc3c(c(=O)n1C2)COC(=O)[C@]3(O)CC [SN-38]; conditions: top dose 0.05 µM; top dose inferred
Experimental: as §1

Methotrexate = compound: CN(Cc1cnc2nc(N)nc(N)c2n1)c1ccc(C(=O)N[C@@H](CCC(=O)O)C(=O)O)cc1 [Methotrexate]; conditions: top dose 0.2 µM
Experimental: as §1

Axitinib = compound: CNC(=O)c1ccccc1Sc1ccc2c(/C=C/c3ccccn3)n[nH]c2c1 [Axitinib]; conditions: top dose 2 µM
Experimental: as §1

Vorinostat = compound: O=C(CCCCCCC(=O)Nc1ccccc1)NO [Vorinostat]; conditions: top dose 10 µM
Experimental: as §1

Cell Line | AUC (Dabrafenib) | IC50 (Dabrafenib) [nM] | AUC (SN-38) | IC50 (SN-38) [nM] | AUC (Methotrexate) | IC50 (Methotrexate) [nM] | AUC (Axitinib) | IC50 (Axitinib) [nM] | AUC (Vorinostat) | IC50 (Vorinostat) [nM]
PCI-15A (head and neck, adherent) | 0.985 | > 10000 | 0.631 | 7.2 | 0.988 | > 200 | 0.931 | > 2000 | 0.988 | > 10000
PCI-30 (head and neck, adherent) | 0.972 | > 10000 | 0.746 | 19 | 0.981 | > 200 | 0.902 | > 2000 | 0.667 | 2040
PE/CA-PJ15 (head and neck, adherent) | 0.964 | > 10000 | 0.555 | 4.47 | 0.983 | > 200 | 0.986 | > 2000 | 0.728 | 2960
PEO1 (ovary, adherent) | 0.97 | > 10000 | 0.56 | 4.58 | 0.902 | > 200 | 0.943 | > 2000 | 0.82 | 6050
PF-382 (T-cell lymphoblastic leukaemia, suspension) | 0.99 | > 10000 | 0.746 | 14.2 | 0.646 | 30 | 0.979 | > 2000 | 0.591 | 1070
PL4 (pancreas, adherent) | 0.915 | > 10000 | 0.733 | 14.8 | 0.95 | > 200 | 0.986 | > 2000 | 0.782 | 4320
PL-21 (acute myeloid leukaemia, suspension) | 0.954 | > 10000 | 0.809 | 31.6 | 0.92 | > 200 | 0.909 | > 2000 | 0.684 | 2240
QGP-1 (pancreas, adherent) | 0.974 | > 10000 | 0.966 | > 50 | 0.967 | > 200 | 0.975 | > 2000 | 0.94 | > 10000
QIMR-WIL (acute myeloid leukaemia, suspension) | 0.752 | 3230 | 0.562 | 4.6 | 0.697 | 43.7 | 0.884 | > 2000 | 0.54 | 799
RCC10RGB (kidney, adherent) | 0.946 | > 10000 | 0.705 | 21 | 0.972 | > 200 | 0.963 | > 2000 | 0.84 | > 10000
RCC-AB (kidney, adherent) | 0.349 | 210 | 0.611 | 6.95 | 0.981 | > 200 | 0.974 | > 2000 | 0.621 | 1490
RCC-ER (kidney, adherent) | 0.847 | 8750 | 0.734 | 16 | 0.986 | > 200 | 0.95 | > 2000 | 0.789 | 5020
RCC-FG2 (kidney, adherent) | 0.766 | 4680 | 0.832 | 44.8 | 0.982 | > 200 | 0.922 | > 2000 | 0.812 | 7290
RCC-JF (kidney, adherent) | 0.725 | 2980 | 0.549 | 4.31 | 0.983 | > 200 | 0.908 | > 2000 | 0.683 | 2170
RCC-JW (kidney, adherent) | 0.926 | > 10000 | 0.444 | 2.19 | 0.986 | > 200 | 0.945 | > 2000 | 0.731 | 2910
RCC-MF (kidney, adherent) | 0.861 | > 10000 | 0.664 | 10.3 | 0.974 | > 200 | 0.914 | > 2000 | 0.748 | 4060
RCM-1 (large intestine, adherent) | 0.892 | > 10000 | 0.849 | > 50 | 0.94 | > 200 | 0.98 | > 2000 | 0.606 | 1300
RERF-LC-KJ (lung adenocarcinoma, adherent) | 0.983 | > 10000 | 0.968 | > 50 | 0.95 | > 200 | 0.955 | > 2000 | 0.795 | 4800
RERF-LC-MS (lung adenocarcinoma, adherent) | 0.938 | > 10000 | 0.589 | 5.52 | 0.945 | > 200 | 0.984 | > 2000 | 0.826 | 6260
RERF-LC-Sq1 (lung squamous cell carcinoma, adherent) | 0.97 | > 10000 | 0.949 | > 50 | 0.939 | > 200 | 0.967 | > 2000 | 0.726 | 3790
RF-48 (stomach, adherent) | 0.958 | > 10000 | 0.785 | 24.3 | 0.918 | > 200 | 0.984 | > 2000 | 0.776 | 4490
RH-1 (rhabdomyosarcoma, adherent) | 0.816 | 4440 | 0.439 | 2.2 | 0.9 | 182 | 0.985 | > 2000 | 0.684 | 1850
RH-18 (rhabdomyosarcoma, adherent) | 0.976 | > 10000 | 0.883 | > 50 | 0.979 | > 200 | 0.959 | > 2000 | 0.691 | 2340
RKN (ovary, adherent) | 0.728 | 2900 | 0.489 | 2.92 | 0.986 | > 200 | 0.98 | > 2000 | 0.683 | 2090
RL95-2 (endometrium, adherent) | 0.957 | > 10000 | 0.889 | > 50 | 0.941 | > 200 | 0.932 | > 2000 | 0.717 | 2560
RMG-I (ovary, adherent) | 0.85 | 9660 | 0.618 | 6.98 | 0.98 | > 200 | 0.969 | > 2000 | 0.751 | 3770
